The text below walks through data of ChEMBL document CHEMBL1201862, “PubChem BioAssay data set” (2004).

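Results reflect a 48-hour exposure of cells in 96-well plates to compound at five concentrations. Abbreviation: GI50, concentration required for 50% inhibition of growth.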 Calls of active or inactive are those of the source. Rule as the data show it: active = GI50 up to about 1.1 µM and inactive = higher.

The subject of the test is NCI-H322M. Nature of the test: NCI tumour cell line growth inhibition, 48 h.
As to `CCOC(=O)C(NC(=O)CC)(Nc1ccccc1OC)C(F)(F)F` (stereo not drawn), the GI50 is inactive: > 100 µM.
Next, `COc1cc2c(c(N)c1OC)C(=O)/C(=C/c1cc(C)c(O)c(C)c1)C2`: active: < 0.01 µM; `COc1cc2nncc(SCc3ccc(Cl)c(Cl)c3)c2cc1OC`: inactive: > 92.7 µM; `Cc1cc(=O)oc2cc(OS(C)(=O)=O)ccc12`: inactive: > 100 µM.
Regarding `C=C1CC(COc2cc(=O)oc3ccccc23)(c2ccccc2)OC1=O` (stereo not drawn), the GI50 was inactive: 12.8 µM.
On to `Cc1cn2c(/C=N/NC(=N)N)c(-c3ccc([N+](=O)[O-])cc3)nc2s1`, for which the GI50 was inactive: 1.48 µM.
Next, `CN1C(=O)[C@@H]2[C@@H]3c4ccccc4N(S(=O)(=O)C(F)(F)F)[C@@H]3c3[nH]c4ccccc4c3[C@@H]2C1=O`: inactive: 77.6 µM; `CCOC(=O)c1cn(C)c(=S)n2c1nc1ccccc12`: inactive: 82.8 µM.
Next, `C/C(=N\O)C(CN1CCCCC1)C(c1ccccc1)c1c(O)c2ccccc2oc1=O` (stereo not drawn): inactive: > 100 µM; `CCC1=C(C)/C(=C/c2[nH]c(C(Br)Br)c(CC)c2C)N=C1C(Br)Br`: inactive: 27.7 µM; `Cc1nc(N/N=C/c2ccccc2Cl)[nH]c(=O)c1CCO`: inactive: > 100 µM.
Next, `CC(=O)C(=N\Nc1ccc(Cl)cc1)/C(C)=N/c1ccc(C)cc1`: inactive: 28.4 µM; `O=C(NNC(=S)NC1CCCCC1)C12CC3CC(CC(C3)C1)C2`: inactive: > 100 µM.
For `CP(C)C.[Ag][I]`, the GI50 was inactive: > 100 µM.
The same measure for `CC(=O)N(C(C)=O)n1c(-c2ccccc2)n[nH]c1=O`: inactive: > 100 µM; for `O=C1/C(=C/c2ccc(Cl)cc2)Sc2scc(-c3cccc([N+](=O)[O-])c3)[n+]21`: inactive: 14.9 µM.
The same measure for `Fc1cc(C2=Nn3c(CNc4ccc(Cl)cc4)nnc3S/C2=C\c2ccc(-c3ccc(Cl)cc3)o2)c(Cl)cc1Cl`: inactive: 33.5 µM; for `O=C(c1cc2ccccc2cc1O)N1CCCCC1`: inactive: > 100 µM.
Take `NC(=O)Cc1nc2c(N)ncnc2n1C1OC(CO)C(O)C1O` (stereo not drawn): the GI50 was inactive: > 100 µM.
Next, `CCOP(=O)(CCCC(O)CNc1nc(N)nc(Cl)c1/N=N/c1ccc(Cl)cc1)OCC` (stereo not drawn): inactive: 14.9 µM; `COC(=O)c1c[nH]cc1CCc1c[nH]cc1C(=O)OC`: inactive: > 100 µM.
Take `C[C@H](OCc1ccccc1)C(=O)N1CCS(=O)(=O)N2CCC[C@@H]2C1=O`: the GI50 is inactive: > 100 µM.
The same measure for `Clc1ccc(-c2ccc(-c3nn4c(CNc5ccccc5)nnc4s3)o2)c(Cl)c1`: inactive: > 100 µM; for `CNC(=O)c1cccc2c(Nc3ccc(NS(C)(=O)=O)cc3OC)c3cccc(C)c3nc12`: inactive: 4.71 µM.
Next, `O=[N+]([O-])/C(C(Cl)=C(Cl)Cl)=C(\N1CCOCC1)n1nnc2ccccc21`: inactive: 16.8 µM; `CN1C2CCC1/C(=C/c1cccc3c1OCO3)C(=O)/C2=C\c1cccc2c1OCO2`: inactive: > 100 µM.
Next, `COc1cccc(/C=N/NC(=O)CN(C)C)c1O`: inactive: > 100 µM; `CCOC(=O)c1sc2nc(SC)nc(N3CCCCC3)c2c1N`: inactive: > 100 µM.
With `Nc1nc(Cl)cc(NCC2(CO)CCC(Cc3ccccc3)C2)n1` (stereo not drawn), the GI50 was inactive: 23.3 µM.
Regarding `C[n+]1cccc2ccc(OC(=O)c3ccccc3)cc21`, the GI50 was inactive: > 100 µM.
For the compound `Cc1cc2c(cc1C(=O)CCC(=O)O)CC1(C2)Cc2cc(C)c(C(=O)CCC(=O)O)cc2C1`, the GI50 was inactive: > 100 µM.
Next, `O=C(NCCCCCCNC(=O)n1cc(F)c(=O)[nH]c1=O)NCCCOCCOCCCNC(=O)C(O)C(O)C(O)C(O)CO` (stereo not drawn): inactive: > 2.33 µM; `O=S(=O)(CC#CCS(=O)(=O)c1ccccc1)c1ccccc1`: inactive: 16.7 µM; `CN(CCNC(=O)c1nn(-c2ccccc2)c2c1Cc1ccccc1-2)CCNC(=O)c1nn(-c2ccccc2)c2c1Cc1ccccc1-2`: inactive: 2.28 µM.
Next, `C/C(=N\O)c1ccc(Nc2nc3ccccc3c3occc23)cc1`: inactive: 17.6 µM.
For the compound `Cc1ccc2nc(/C=N/c3ccc(Cl)cc3)cc(C)c2c1`, the GI50 is inactive: 71.3 µM.
As for `O=C(O)c1ccc(/C=N\N(CCO)C2=NCCN2)cc1`, the GI50 is inactive: > 100 µM.
Next, `Sc1ncc(-c2cncc(-c3cnc(S)nc3)n2)cn1`: inactive: > 100 µM; `COc1ccc2cc(C(=O)c3ccccc3C(=O)O)ccc2c1`: inactive: > 100 µM.
Consider `COc1ccc2[nH]c(=O)cc(C)c2c1[N+](=O)[O-]`, for which the GI50 is inactive: > 100 µM.
The same measure for `O=C1C(c2ccccc2)=C(c2ccccc2)C(c2ccc(CCCCCCc3ccc(C4=C(c5ccccc5)C(=O)C(c5ccccc5)=C4c4ccccc4)cc3)cc2)=C1c1ccccc1`: inactive: > 100 µM; for `CO[C@@]12C[C@@H](C)C3=CCC(C)=C3CC1=C(C)C(=O)O2`: inactive: > 100 µM.
Next, `COC(=O)CC1c2ccccc2N2C(=O)Cc3c([nH]c4ccccc34)C12` (stereo not drawn): inactive: > 100 µM; `O=C(CCCN1CCC2(CC1)CC(=O)N(N1CCOCC1)C2=O)c1ccc(F)cc1`: inactive: > 100 µM.
Next, `NC1=NC(c2ccc(Cl)cc2)N(c2ccc(S(=O)(=O)Nc3ncccn3)cc2)C(N)=N1` (stereo not drawn): inactive: > 100 µM; `CN(C(=O)CCC(=O)O)c1ccccc1C(=O)O`: inactive: > 100 µM.
With `COc1ccccc1CC(C)N` (stereo not drawn), the GI50 is inactive: > 100 µM.
In the case of `O=C(Nc1ccc(Cl)cc1Cl)OC(Cn1cncn1)c1ccc(Cl)cc1Cl` (stereo not drawn), the GI50 is inactive: 17.4 µM.
The same measure for `OC(c1ccc(-c2ccccc2)cc1)C(F)(F)c1nc2ccccc2o1` (stereo not drawn): inactive: 76.2 µM; for `NC(=O)NCc1c(C(N)=O)ncn1Cc1ccccc1`: inactive: > 100 µM; for `CCOC(=O)C(CC(C)C)NC(=O)C(Cc1ccc(N(CCCl)CCCl)cc1)NC(C)=O` (stereo not drawn): inactive: 21 µM.
On to `CCOC(=O)N/N=C(/N)Cc1ccccc1`, for which the GI50 is inactive: > 100 µM.
On to `O=C(CC(=O)N1N=C(c2ccccc2)C(/N=N/c2ccccc2Cl)C1=O)Nc1ccccc1Cl` (stereo not drawn), for which the GI50 is inactive: 36.5 µM.
Take `COc1cc([N+](=O)[O-])c(S(=O)(=O)O)cc1N`: the GI50 is inactive: > 100 µM.
In the case of `CC#CC#C/C=C1/C=CC2(CCCCO2)O1` (stereo not drawn), the GI50 is inactive: > 100 µM.
The same measure for `CC1=N/C(=C\c2ccc([N+](=O)[O-])cc2)C(=O)O1`: inactive: > 100 µM.
In the case of `CCOP(=Nc1ccc(N(C)C)cc1)(OCC)OCC`, the GI50 is inactive: > 100 µM.
As to `CC(C)SC(=S)Sc1c(Cl)c(Cl)nc(Cl)c1Cl`, the GI50 is inactive: 15.1 µM.
The same measure for `CC(=O)N[C@H]1CCCC[C@@H]1OC(C)=O`: inactive: > 100 µM; for `Cc1ccc2nc3[nH]nc(N)c3nc2c1`: inactive: > 100 µM.
On to `Cc1ccc(S(=O)(=O)N/N=C2/CCC(C(C)(C)C)CC2Br)cc1` (stereo not drawn), for which the GI50 was inactive: 44.8 µM.
The same measure for `O=C(O)CSc1nnc(-c2ccc(O)cc2)[nH]1`: inactive: > 100 µM; for `CN1Cc2cc3c(cc2-c2ccccc21)OCO3`: inactive: > 100 µM.
The same measure for `CSC1NC=Nc2c1sc(=S)n2-c1ccccc1` (stereo not drawn): inactive: > 100 µM; for `CCOc1ccc(/N=N/C2C(=O)N(C(=O)CC(=O)Nc3ccc(C)cc3)N=C2C)cc1` (stereo not drawn): inactive: 14.1 µM.
The same measure for `CCOC(=O)CC1=CSC2=NCCN12`: inactive: > 100 µM; for `CC(=S)NC1C(Oc2ccc3c(C)cc(=O)oc3c2)OC(CO)C(O)C1O` (stereo not drawn): inactive: > 100 µM; for `CCC1N2CCCCC2[C@@H]2c3[nH]c4ccccc4c3CCN12` (stereo partly drawn): inactive: > 100 µM.
Take `Cc1cc([N+](=O)[O-])ccc1NC(=O)C(=O)C(C(=O)c1ccccc1-c1ccccc1)C1OC(=O)c2ccccc21` (stereo not drawn): the GI50 is inactive: 15.8 µM.
As to `[O-][n+]1onc2c1-c1nonc1CC2`, the GI50 was inactive: 22.2 µM.
With `O=C1c2cccnc2S(=O)(=O)N1c1ccc([N+](=O)[O-])cc1`, the GI50 is inactive: > 100 µM.
The same measure for `[O-][S+](C(c1ccccc1)=P(c1ccccc1)(c1ccccc1)c1ccccc1)c1ccc(Cl)cc1` (stereo not drawn): inactive: 36.2 µM; for `CC(=O)c1ccc(N2CCN(C3=CC(=O)c4c(O)ccc(O)c4C3=O)CC2)cc1`: inactive: 24.8 µM.
For `C[C@]12CC[C@H](O)CC1=CC[C@@H]1[C@@H]2CC[C@]2(C)C(=N/N)/C(=N\O)C[C@@H]12`, the GI50 was inactive: > 100 µM.
For the compound `CC(=O)NC1C(=O)CC(c2ccccc2)N(C)C1c1ccccc1` (stereo not drawn), the GI50 is inactive: > 100 µM.
Consider `COc1ccc(S(=O)(=O)O)cc1NS(=O)(=O)c1ccc(C)cc1`, for which the GI50 is inactive: > 100 µM.
Next, `CC[C@@H]1NC(C(=O)OC)Cc2c1[nH]c1ccccc21` (stereo partly drawn): inactive: 73.8 µM.
On to `COC1[C@@H](OC(C)=O)[C@@H](NC(=O)C(Cl)(Cl)Cl)C(I)[C@@H](N2C(=O)c3ccccc3C2=O)[C@H]1OC` (stereo partly drawn), for which the GI50 was inactive: > 100 µM.
For the compound `O=C(O)[C@@H]1OCCOCCO[C@@H](C(=O)O)[C@H](C(=O)O)OCCOCCO[C@H]1C(=O)O`, the GI50 was inactive: > 100 µM.
`CC(=O)OC1CC2CCN3C(=O)c4cc5c(cc4[C@H](C1OC(C)=O)C23)OCO5` (stereo partly drawn): the GI50 is inactive: > 100 µM.
Consider `CC1=C[C@@H](C)C[C@]2(C)CC[C@H](O2)[C@]23CC[C@](CO)(C[C@H](O2)[C@@H]2O[C@@](C)(CC2=O)[C@@H](O)[C@H]2CC[C@@]4(CCC[C@@H](O4)[C@H](C)C(=O)O[C@H]4C[C@H]([C@]5(O)OCC[C@H](C)[C@@H]5O)O[C@H]4C=C1)O2)O3`, for which the GI50 is active: 0.279 µM.
The same measure for `CC1=C(N2CC2)C(=O)C(C)=C(N2CC2)C1=O`: active: 0.505 µM; for `C/C(=N\N=C(/S)N1CCCCCC1)c1cccc[n+]1[O-]`: inactive: 6.53 µM.
